# Measurements as given in the supplement of paper PMC3334620.
# Over roughly 33,000 sequences, “E-score (-0.5 to 0.5)” has its median near -0.012; the highest 2% begin near 0.27. This is one part of the list.
# Target: T1, Vhr1 (UniProt P40522)
# T1 sequence: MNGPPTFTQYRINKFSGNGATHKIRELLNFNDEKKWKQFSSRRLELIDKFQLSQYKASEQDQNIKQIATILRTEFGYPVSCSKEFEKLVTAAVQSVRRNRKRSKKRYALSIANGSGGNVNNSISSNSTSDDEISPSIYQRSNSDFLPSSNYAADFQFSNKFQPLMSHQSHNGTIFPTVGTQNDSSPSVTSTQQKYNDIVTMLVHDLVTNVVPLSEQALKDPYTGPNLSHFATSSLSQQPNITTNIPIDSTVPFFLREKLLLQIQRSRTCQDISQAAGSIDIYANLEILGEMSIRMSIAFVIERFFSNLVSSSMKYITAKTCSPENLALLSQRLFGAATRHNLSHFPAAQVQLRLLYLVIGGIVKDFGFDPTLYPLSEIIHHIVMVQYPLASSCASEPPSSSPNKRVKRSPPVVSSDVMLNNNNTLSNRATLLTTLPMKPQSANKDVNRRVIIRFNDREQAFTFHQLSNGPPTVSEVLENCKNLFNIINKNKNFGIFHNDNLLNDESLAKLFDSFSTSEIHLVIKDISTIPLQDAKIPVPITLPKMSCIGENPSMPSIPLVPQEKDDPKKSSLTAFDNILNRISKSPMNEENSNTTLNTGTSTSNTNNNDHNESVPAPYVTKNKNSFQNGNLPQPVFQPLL
# Assay: PBM E-score (8-mer binding enrichment) (E-score (-0.5 to 0.5)); higher = stronger / more preferred TF binding; most listed sequences are background and not binding sites
# Conditions: protein concentration: 200 nM; construct: GST-full length
# Procedure, shortened: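 PURExpress in vitro transcription/translation supplied GST-tagged yeast transcription factors, either full-length or DNA-binding domain. Applied at about 100-200 nM to universal all-10-mer Agilent arrays double-stranded by primer extension, the bound protein was detected with fluorescent anti-GST. E-scores, modified Wilcoxon-Mann-Whitney statistics, were given by the Universal PBM Analysis Suite to ungapped eight-base words pooled with their reverse complements after masliner normalisation.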
row,Sequence,PBM E-score
1,TACGTTAA,-0.191
2,AGAATCTC,-0.111
3,CGTACCCA,0.16
4,GCTCATTA,-0.0493
5,ATTACGGC,-0.0276
6,GTTGGAAA,-0.0799
7,CATTTGCG,-0.0267
8,AGTGCGAA,-0.189
9,CTAGCCAA,0.0453
10,AATACTCT,0.0104
11,ATCCCTCA,-0.16
12,GATTGCTA,-0.0805
13,AGCCCTTG,-0.088
14,TAGATCGA,-0.048
15,GGGAGAAC,-0.189
16,ATTGTTTG,-0.0624
17,TCAGTTCA,-0.0239
18,GTGTGAAC,0.18
19,AACCCTGT,-0.0657
20,ACTTGCAA,0.00414
21,AAGGTAAC,0.0225
22,TGGGCACA,0.0493
23,ATGGGCAA,0.129
24,TCGACAGA,-0.0968
25,CGCGACCC,0.153

row,Sequence,PBM E-score
1,TGCTAAAA,-0.255
2,CAATTCTG,-0.077
3,GCTGAATA,0.00091
4,AATGGTCA,0.0534
5,AAAAAAGC,-0.19
6,CACTATCC,-0.0168
7,CCGATGGC,-0.0471
8,GATCGGCA,-0.059
9,CCGTCACC,-0.114
10,ACATCAGG,0.0879
11,AGAGGGCT,-0.249
12,AACGTTCT,-0.0871
13,ATGCCATA,-0.0959
14,ACGGAAGT,-0.0793
15,CGGATGTC,-0.00234
16,AGGATACT,-0.156
17,ACGCATTA,-0.0807
18,AGAATAGA,-0.151
19,ACCAGCAT,0.0788
20,ATTTAGGG,-0.202
21,AGCAGTTA,-0.103
22,AATACCTC,0.0406
23,CTTCTCTA,-0.263
24,AAGCCGCC,-0.0537
25,ACTAAGGG,0.173

row,Sequence,PBM E-score
1,AGAGTACC,0.00489
2,ATGATCAC,0.265
3,AACATATT,0.0536
4,GGTCATTA,-0.0362
5,ACGCCGCT,0.0465
6,CACCGTGA,0.162
7,ACCCGCAG,0.0734
8,AAACCTAC,-0.0161
9,CATAGTCC,0.115
10,AGAACCAT,0.107
11,GATCTGCA,-0.142
12,TAATTTAA,-0.0298
13,ACGCAAGC,0.0516
14,TCTTCTAA,-0.118
15,ATAACGCG,0.0317
16,AACGCAAA,0.0203
17,GCATTAAA,-0.162
18,CGGCGTAC,0.0172
19,GATAGCGC,0.00074
20,AGATGGCC,-0.22
21,ACTACTCG,0.24
22,CCGAAGGC,-0.206
23,ACAAAAAT,0.0768
24,AACACCAT,0.16
25,AGAAGTGA,-0.0563

row,Sequence,PBM E-score
1,ATCTTAGC,-0.137
2,CCACTGCC,0.0242
3,CTCAAGAA,-0.175
4,GGATGAAA,0.0509
5,CATGGAAC,-0.056
6,CTTCTAGC,-0.172
7,ACGCTCAT,0.0513
8,CGCTACGC,-0.148
9,AAAGGGAC,-0.0521
10,ATTTCGGG,-0.27
11,GGTCTGCA,0.066
12,ATTCAGAC,0.106
13,CCTAGTGA,0.0766
14,CTAAAGGC,-0.308
15,CGTTTTTA,-0.067
16,GGGCATAC,-0.267
17,CTCTGTCA,-0.17
18,ACTCGACA,0.127
19,CTTTATAA,-0.307
20,ACTGGTAT,0.111
21,ACCGGGTC,0.143
22,CTACGATC,-0.0877
23,ACATTTAC,-0.0363
24,CGGCGTAG,-0.0267
25,ACAATTGC,-0.118

row,Sequence,PBM E-score
1,CAGATGCG,-0.132
2,TTCGGCAA,-0.0215
3,GTTTCATA,0.0705
4,CGCAACGA,0.093
5,ATTTCAGA,-0.0987
6,AACTTCGG,-0.0629
7,CGTTCCAA,-0.0737
8,TAAGAAAA,-0.28
9,GTTGAACA,-0.269
10,GGTCCCCA,-0.136
11,AGCCCTCA,-0.172
12,GCCCGTAC,-0.118
13,CCACAAAC,0.00235
14,CTCAAAAA,-0.0881
15,AAACTAGG,-0.0415
16,AGATGCTG,-0.0294
17,GCGTGCCC,0.0244
18,GAAAGGTA,-0.212
19,CTATCAAA,-0.0333
20,CTCCGGGC,0.0352
21,CCCCGAGC,0.0825
22,TCAAGCCA,-0.00986
23,GCAGCTGC,-0.232
24,TCGGCGCA,0.11
25,AAAAACCC,-0.173

row,Sequence,PBM E-score
1,CTAGTGTA,0.114
2,GATGCTCC,-0.126
3,CCTACGAG,0.142
4,CCTAGAGA,-0.202
5,GGGCGCCA,0.115
6,CCACCCTA,0.0578
7,CCATTTCG,-0.134
8,GACTCGGA,0.278
9,CTGTCCAA,-0.122
10,GGTCTGAC,0.226
11,CTTACTTC,-0.125
12,CGAAAGTA,-0.149
13,CACCTGGA,-0.0626
14,TCTTGTAA,0.0547
15,CTCGGTTA,-0.0784
16,ACGGAAGG,-0.1
17,CCGATTAG,0.0891
18,AACATAAC,0.078
19,ATCCTGGG,-0.0716
20,CCATTTAG,-0.0927
21,ACCGCGCC,-0.0598
22,AGTGAACC,0.082
23,CACGAAAG,-0.0996
24,GTCTTAAA,-0.217
25,CATACGTC,-0.0442

row,Sequence,PBM E-score
1,GACTGTCA,0.0521
2,CAAGGGAA,-0.169
3,CTTTAATC,-0.138
4,CAGAAGTC,-0.0504
5,TATAGCAA,0.00432
6,AACCTTGA,-0.0303
7,CGCCGGAA,-0.0762
8,ACCGGCCT,-0.0394
9,CTGTCCCC,-0.0993
10,GACACCAA,0.108
11,GGCGTCCC,-0.191
12,ATAATCTA,-0.0617
13,CGCCCTAA,-0.247
14,CAGCCAGC,0.0302
15,ATAAGACC,-0.184
16,CAGAGCAA,-0.0116
17,CCGGAACC,0.195
18,CTGGTGCA,0.0228
19,GATTATAC,0.213
20,AAGCCAGG,-0.0848
21,ATCCCCGC,0.129
22,CTACTCGC,0.03
